# Biological target: T1, JAK2 (Homo sapiens, UniProt O60674)
# T1 construct: purchased KinaseProfiler (Eurofin, Brussels, Belgium)
# Experiment: Cell-free kinase activity assay, JAK2
# Assay type: biochemical
# Conditions: kinase in vitro
# T1 sequence (O60674 whole entry): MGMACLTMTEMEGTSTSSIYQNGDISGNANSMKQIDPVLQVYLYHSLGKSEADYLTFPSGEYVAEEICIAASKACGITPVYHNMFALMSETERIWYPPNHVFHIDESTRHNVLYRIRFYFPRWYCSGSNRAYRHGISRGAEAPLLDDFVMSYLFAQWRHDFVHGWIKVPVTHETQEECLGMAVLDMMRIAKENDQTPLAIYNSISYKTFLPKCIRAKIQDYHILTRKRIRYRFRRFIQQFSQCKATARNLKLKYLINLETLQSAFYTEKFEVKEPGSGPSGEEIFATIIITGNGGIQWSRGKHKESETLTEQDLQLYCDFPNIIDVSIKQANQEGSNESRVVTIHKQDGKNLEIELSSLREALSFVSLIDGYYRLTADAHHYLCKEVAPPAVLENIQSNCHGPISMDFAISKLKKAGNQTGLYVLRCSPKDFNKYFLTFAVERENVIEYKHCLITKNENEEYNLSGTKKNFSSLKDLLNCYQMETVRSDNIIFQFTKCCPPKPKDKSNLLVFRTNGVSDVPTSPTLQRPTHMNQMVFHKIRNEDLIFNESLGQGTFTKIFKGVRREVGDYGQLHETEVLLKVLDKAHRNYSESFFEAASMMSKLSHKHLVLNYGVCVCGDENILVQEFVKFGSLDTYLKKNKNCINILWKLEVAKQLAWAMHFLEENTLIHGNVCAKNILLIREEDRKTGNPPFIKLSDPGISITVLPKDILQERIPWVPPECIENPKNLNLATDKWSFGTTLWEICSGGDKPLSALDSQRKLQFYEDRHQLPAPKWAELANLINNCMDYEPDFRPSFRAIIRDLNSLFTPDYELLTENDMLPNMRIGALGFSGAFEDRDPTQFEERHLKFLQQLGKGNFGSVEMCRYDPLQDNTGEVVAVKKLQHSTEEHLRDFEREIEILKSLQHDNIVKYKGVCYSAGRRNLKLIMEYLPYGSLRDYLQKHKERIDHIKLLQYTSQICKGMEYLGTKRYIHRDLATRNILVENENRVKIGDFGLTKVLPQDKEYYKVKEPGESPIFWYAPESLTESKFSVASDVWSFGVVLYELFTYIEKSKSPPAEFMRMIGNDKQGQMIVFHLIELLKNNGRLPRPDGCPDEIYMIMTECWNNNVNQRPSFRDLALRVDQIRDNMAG
row,SMILES,IC50 [nM]
1,Cc1ccc(C(=O)Nc2ccc(CN3CCN(C)CC3)c(C(F)(F)F)c2)cc1C#Cc1cnc2cccnn12 [Ponatinib],> 1000
2,Cc1cc(Nc2nc(N[C@@H](C)c3ncc(F)cn3)ncc2Cl)n[nH]1 [AZD1480],< 200
